From PubChem BioAssay AID1508624 (National Center for Advancing Translational Sciences (NCATS), 2021)
Screen size: about 48,000 compounds; about 120 (0.25%) were called active. Another 4% or so got no clear call; they are omitted. Calls come from the whole dose curve; as a rule, active = well fitted activation curve with a large enough effect; inconclusive = small, poorly fitted or top-dose-only effect, or another doubt; inactive = no such curve, though single readings can be large or run the other way. The list shows a part of the results.

Assay: Primary qHTS for Identification of Small Molecule Activators of Huntingtin-Antisense Promoter Activity; note: nearly all actives have a fitted effect of over 55% in size
Details: HEK293 HTT-AS promoter firefly luciferase reporter, 24 h; series mostly up to 57.5 µM; activity change, positive = activation: at the top concentration
Procedure, shortened: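 Firefly luciferase readout (Dual-Glo, 10 min RT) after 24 h, 37 °C compound exposure (final up to 57.5 uM) of HEK293 reporter cells cultured 24 h beforehand; PTC124 at 50 uM final as control inhibitor; activity scaled vehicle 0%, zero RLU -100%.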

Activity change, positive = activation, inactive:
Cc1ccc(C)c(N2CCN(C(=O)Cn3nc(Cc4cccnc4)c4ccccc4c3=O)CC2)c1 -37.5%
COc1ccc(C)cc1NC(=O)C(NS(=O)(=O)c1cccc2nsnc12)c1ccccc1 (centres undefined) -9.79%
CCOC(=O)N1CCc2c(sc3c2c(=O)n(-c2ccc(Cl)cc2)c(=O)n3CC(=O)Nc2ccccc2)C1 -4.96%
CCOCN(C(=O)CSc1nc2ccccc2[nH]1)c1c(C)cccc1CC -38.1%
O=C(c1ccccc1)c1ccc2nc(Nc3ccccc3Cl)c3nncn3c2c1 -21%
CCCCN(CC)C(=O)Cn1nc(C)c2c(C)n(-c3ccccc3)nc2c1=O 16.1%
CCOC(=O)c1c(C)oc2nc(C)nc(NCc3cccc(OC)c3)c12 -14.8%
CCOC(=O)c1cc(OC(=O)c2ccc(OC)c(OC)c2)n(-c2ccccc2)n1 -3.38%
C[C@H](CS)C(=O)N1CCC[C@H]1C(=O)O -10.7%
COc1ccccc1CNC(=O)CCCn1c(=O)c2ccccc2n(Cc2ccccc2F)c1=O -3.07%
Cc1ccc(N2CC(C(=O)Nc3ccc(Cl)cc3Cl)CC2=O)cc1 (centres undefined) -5.73%
Cc1cccc(Cn2c(SCc3ccc(C(=O)NC4CCCCC4)cc3)nc3cccnc32)c1 -32.8%
COc1ccccc1NC(=O)CCNS(=O)(=O)c1ccc2c(c1)CCCC(=O)N2 -11.4%
CCn1c(=O)cc(SCC(=O)N2CCN(c3cc(C)ccc3C)CC2)c2ccccc21 -22%
Cc1nc2cccnc2n1-c1cccc(C(=O)NCCc2ccc(Cl)cc2)c1 -29%
N#Cc1ccccc1NC(=O)C(=O)NCC(c1ccc2c(c1)OCO2)N1CCN(c2ccccc2)CC1 (centres undefined) -5.15%
COc1cc(CN2CCc3nc(N4CCN(c5ccccc5F)CC4)ncc3C2)ccc1OC(C)C -36.7%
CCC(=O)N1CCCc2cc(S(=O)(=O)Nc3ccc(C)c(C)c3)ccc21 -31%
CCCCN(CC)C(=O)Cn1c(=O)n(-c2ccc(OCC)cc2)c(=O)c2c3c(sc21)CCCC3 -30.9%
O=C(Nc1ccc2nc(SCC(=O)N3CCCc4ccccc43)sc2c1)c1ccc(F)cc1 -30.8%
Cc1c(C(=O)Nc2ccc(Br)cc2F)sc2ncnc(N(C)C3CCCCC3)c12 -10.3%
CCOC(=O)c1c(C)[nH]c(C)c1S(=O)(=O)NCC(=O)N(C)c1ccc(C)c(C)c1 -2.1%
Cn1cnc(S(=O)(=O)N2CCC(C(=O)N3CCN(c4cccc(C(F)(F)F)c4)CC3)CC2)c1 -5.72%
O=C(Nc1c(C(=O)c2ccccc2)oc2ccccc12)c1cc(=O)c2ccccc2o1 3.63%
COc1ccc(NC(=O)CSc2nc(-c3ccccc3)nc3cc(=O)[nH]n23)cc1 3.42%
CC(C)(C)c1ccc(NC(=O)CSc2nnc3scc(-c4ccccc4)n23)cc1 -25.6%
CSc1ncc(C(=O)Nc2ccccc2C(=O)c2ccccc2)c(C)n1 -13.9%
CCOC(=O)c1cnc2c(OC)cccc2c1Nc1cccc(O)c1 -34%
CCn1c2ccc(F)cc2c2nnc(SCCN3CCCCC3)nc21 -17.8%
Nc1nc(N)c2nc(-c3cccc(O)c3)c(-c3cccc(O)c3)nc2n1 -1.92%
Cc1cccc(CNC(=O)C2CCN(c3nc4ccc(Cl)cc4[nH]3)CC2)c1 -15.1%
Cc1cc(C)c2c(C)c(C(=O)N3CCC(c4nc5ccccc5s4)CC3)oc2c1 -23% [at 11.5 µM, percent change from vehicle, -100% = no light]
COc1ccc(C2Nc3ccccc3-c3nnc(SC)nc3O2)cc1C (centres undefined) -4.91%
COc1cc(C2c3c(oc4ccc(C)cc4c3=O)C(=O)N2Cc2ccc(F)cc2)ccc1O (centres undefined) -17.9%
Cc1ccc(C(=O)Nc2ccccc2F)cc1S(=O)(=O)N1CCOCC1 6.66%
CC1(C)O[C@@H]2C[C@H]3[C@@H]4C[C@H](F)C5=CC(=O)C=C[C@]5(C)[C@H]4[C@@H](O)C[C@]3(C)[C@]2(C(=O)CO)O1 -21.2%
Cc1ccc(NC(=O)CCC(=O)N2CCOc3ccccc32)c(Cl)c1 8.41%
CCc1nn2c(=O)cc(COC(=O)CNC(=O)c3ccccc3)nc2s1 -11.8%
O=C(Nc1ccc(Br)cc1)C1CCN(c2cnccn2)CC1 -27.5%
COc1cc(OC)c(Nc2cc(C)nc3ncnn23)cc1Cl -21.3%
CCOc1ccc(C(=O)Nc2cccc(NC(=O)c3ccco3)c2)cc1Cl 0.726%
COc1ccccc1CNC(=O)c1ccc(N2CCCC2)c(NC(=O)NCc2ccccc2)c1 -14%
CCN(CC)S(=O)(=O)c1nnc(NC(=O)COc2ccccc2Cl)s1 -14.5%
O=C(COc1ccccc1F)OCc1cc(=O)n2nc(-c3cccs3)sc2n1 0.926%
CCC(C(=O)N1CCN(c2ccccc2)CC1)n1nc(C)n2c(cc3sccc32)c1=O (centres undefined) -23.7%
COc1ccc(C(=O)NCc2nnc(SCC(=O)Nc3ccccc3)n2-c2ccc(F)cc2)cc1 -13.1%
CC(C)NCC(O)COc1cccc2[nH]ccc12 (centres undefined) -15.5%
CCOc1ccc(CCNC(=O)CN2C(=O)C(CC)Oc3ccccc32)cc1OCC (centres undefined) -19%
COc1ccc(NC(=O)c2c(NCc3ccc(C)o3)sc3c2CCC(C)C3)c(OC)c1 (centres undefined) -23.3%
COc1ccc(OC)c(NC(=O)CSc2ccnc(=O)[nH]2)c1 -16%
COc1ccccc1-c1cc(C(=O)Nc2sc3c(c2C#N)CCCC3)no1 -8.76%
Cn1c(=O)oc2cc(S(=O)(=O)CCC(=O)N3CCN(c4ccccc4)CC3)ccc21 6.51% [at 11.5 µM, percent change from vehicle, -100% = no light]
COc1ccccc1N1CCN(S(=O)(=O)c2c(C)sc3ncn(CC(=O)Nc4cccc(Cl)c4)c(=O)c23)CC1 5.46%
COC(=O)c1c(-c2ccc(Cl)cc2)noc1N1CCN(c2ccc(OC)cc2)CC1 -4.7%
COc1ccc(C2CC(c3c(O)n(C4CCCCC4)c(=O)[nH]c3=O)=Nc3ccccc3S2)cc1 (centres undefined) 12.1%
Cc1ccc2c(c1)NC(=O)C(CC(=O)Nc1cc(Cl)ccc1C)O2 (centres undefined) -4.96%
COc1ccc(-c2cnnn2-c2ccc(NC(=O)c3ccc(S(=O)(=O)N(C)C)cc3)cc2)cc1 -31.4%
COc1ccc(-c2cnnn2-c2ccc(NC(=O)c3c(F)cccc3F)cc2)cc1 -28.9%
CCOC(=O)c1cnc2cc(-c3ccc(Cl)cc3)nn2c1-c1ccccc1 0%
